# Reference: PubChem BioAssay AID651820 (National Center for Advancing Translational Sciences (NCATS), 2012)
# The campaign covered roughly 340,000 compounds. About 12,000 (3.5%) were called active. This list was built around the results that the source calls inconclusive (neither active nor inactive); the mix of calls is not that of the screen. Calls come from the whole dose curve; as a rule, active = well fitted inhibition curve with a large enough effect; inconclusive = small, poorly fitted or top-dose-only effect, or another doubt; inactive = no such curve, though single readings can be large or run the other way. No potency is given beside an inconclusive call; the fits are too rough.
# Experiment: qHTS Assay for Inhibitors of Hepatitis C Virus (HCV)
# Settings: Huh7.5.1 HCVcc-Cre (HCVcc is cell-culture hepatitis C virus) infection, luciferase reporter, 44 h; activity change, negative = inhibition: at 41.8 µM (top of the series) unless noted
# How it was run: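 1,000 cells/well; 4 h culture; + compound; + HCVcc-Cre (~0.5 moi); 44 h; luciferase substrate, RT 15 min; read 15 sec.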
# % is set by controls: 0 for no effect and ±100 for the full control effect; potency is the fitted concentration of half-maximal effect; tags give direction and shape of the fitted curve.
SMILES,Potency,"activity change, negative = inhibition"
CCOc1cccc(/C=C/c2ccc3cccc(O)c3n2)c1O,active: 14.1 µM,–
O=C(C1Cc2ccccc2CN1C(=O)c1ccccc1)N1CCN(c2ccccc2)CC1 (centres undefined),inactive,–
Cc1ccc(OCC(=O)c2c(N)n(C)c(=O)n(C)c2=O)c([N+](=O)[O-])n1,inactive,–
CC(=NNC(=S)N1CC2CCC(CC2)C1)c1ccncn1,active: 0.316 µM,–
COc1cc(OC)cc(N2CC(C)(C)C2=O)c1,"inconclusive [inhibitor, full curve]",–
CC(=O)Nc1ccc(NC(=O)c2ccccc2Nc2ccccc2)cc1,"inconclusive [inhibitor, single point]",–
CCC1=NN(C(=O)c2cccc(Br)c2)C(O)(c2ccc(Br)cc2)C1 (centres undefined),active: 15.8 µM,–
Cc1nn(C(C)C(=O)NCc2ccco2)c(C)c1[N+](=O)[O-] (centres undefined),inactive,–
CC(=O)Nc1ccc2c(c1)Cc1ccc(Cl)cc1-2,"inconclusive [inhibitor, single point]",–
CN(C)CCOCCOc1ccc(Cl)cc1C(C)(C)C,"inconclusive [inhibitor, partial curve]",–
CC(/C=C1\SC(=Nc2cccnc2)NC1=O)=C\c1ccccc1,"inconclusive [inhibitor, partial curve]",–
CCOc1ccccc1NC(=O)NCCCCc1ccccc1,"inconclusive [inhibitor, partial curve]",–
Cc1n[nH]c(=S)n1/N=C/c1ccccc1OCc1ccc(Cl)cc1,"inconclusive [inhibitor, full curve, poor fit]",–
CN(C)c1ccc(S(=O)(=O)N2CCC(Cc3ccccc3)CC2)cn1,"inconclusive [inhibitor, single point]",–
COC(=O)Cn1cnc2c(nnn2-c2ccc(OC)cc2)c1=O,inactive,–
COc1cccc(NC(=O)Nc2ccccc2Br)c1,inactive,–
CCOC(=O)c1ccc(NC(=O)c2cccc(S(=O)(=O)N3CCN(C(C)=O)CC3)c2)cc1,active: 10 µM,–
O=C(/C=C/c1c(F)cccc1Cl)NCc1ccc2c(c1)OCO2,inactive,–
O=C(NNC(=O)c1ccccc1-n1cccc1)c1ccc(Cl)cc1Cl,"inconclusive [inhibitor, single point]",–
Cc1noc(C)c1COC(=O)c1cc(S(=O)(=O)N2CCOCC2)ccc1Cl,"inconclusive [inhibitor, single point]",–
Cc1cccc(-c2nnc(NC(=O)c3ccc(Cl)cc3)o2)c1,"inconclusive [inhibitor, single point]",–
CCC(=O)N1CCN(c2ccccc2NC(=S)NC(=O)c2cccc([N+](=O)[O-])c2)CC1,"inconclusive [inhibitor, single point]",–

SMILES,Potency,"activity change, negative = inhibition"
COC(=O)C1=C(c2cccc(OCc3ccccc3)c2)C[C@@H]2CC[C@H]1N2C(=O)NCCOc1ccccc1,"inconclusive [inhibitor, partial curve]",–
COC(=O)c1ccn(CSc2cc(Cl)ccc2Cl)n1,inactive,–
COc1cccc(N2CC(O)Cn3c2nc2c3c(=O)n(CCCc3ccccc3)c(=O)n2C)c1 (centres undefined),"inconclusive [inhibitor, single point]",–
COc1cc(NC(=O)Cn2c(=O)n(-c3cccc(C)c3)c(=O)c3c(C)c(C)sc32)cc(OC)c1,inactive,–
C#Cc1ccc([C@H]2C=C(C(=O)N3CCN(Cc4ccc5c(c4)OCO5)CC3)O[C@@H](OCc3ccc(CO)cc3)C2)cc1,–,inactive: 13.6% [at 8.37 µM]
CC1CCCC(NC(=O)c2cccc(S(=O)(=O)N3CCN(c4ccccc4)CC3)c2)C1C (centres undefined),"inconclusive [inhibitor, full curve, poor fit]",–
O=C(Cc1cccc(NC(=O)C2CCCN(C(=O)C3CCC3)C2)c1)Nc1cccc(C(=O)N2CCCCC2)c1 (centres undefined),"inconclusive [inhibitor, full curve]",–
CN1CCc2nc(SCc3ccc(Cl)cc3)c(C#N)c(-c3cccs3)c2C1,"inconclusive [inhibitor, full curve, poor fit]",–
O=C(CN1CCN(Cc2ccccc2)CC1)Nc1cccc(S(=O)(=O)N2CCCCCC2)c1,"inconclusive [inhibitor, full curve]",–
Cc1occc1C(=O)NNC(=O)c1ccccc1Br,inactive,–
Cc1ccc(Cn2c(O)c(N=NC(=S)Nc3ccccc3F)c3ccccc32)cc1,"inconclusive [inhibitor, full curve, poor fit]",–
Cn1c(N/N=C/c2cccs2)nc2c1c(=O)n(Cc1ccccc1)c(=O)n2C,"inconclusive [inhibitor, single point]",–
COCc1ccc(CN2CCCC(C(=O)Nc3ccccc3-c3ccc(OC)cc3)C2)o1 (centres undefined),inactive,–
Cc1ccc(S(=O)(=O)N(C)c2ccc(OCC(=O)Nc3cccc(-n4cnnn4)c3C)cc2)cc1,"inconclusive [inhibitor, partial curve]",–
Cc1noc(C)c1CSCC(=O)N1CCN(c2ccc([N+](=O)[O-])cc2)CC1,active: 11.2 µM,–
C=CCn1c(SCC(=O)Nc2sccc2C#N)nc2sc(C)c(C)c2c1=O,"inconclusive [inhibitor, single point]",–
O=C(Nc1ccc(N2CCOCC2)cc1Cl)C1CCN(C(=O)OCc2ccccc2)CC1,"inconclusive [inhibitor, single point]",–
Cc1ccc(Cl)cc1NC(=O)COC(=O)C1CCCCC1,"inconclusive [inhibitor, single point]",–
CCCCNc1ncnc2c1cnn2-c1ccccc1,"inconclusive [inhibitor, partial curve]",–
COc1ccc(C(=O)N2CCCC(Nc3ccc(F)c(F)c3)C2)c(OC)n1 (centres undefined),"inconclusive [inhibitor, single point]",–
Cc1c(NC(=O)CSc2ccc(Cl)cc2)cccc1-c1nc2ncccc2o1,"inconclusive [inhibitor, full curve, poor fit]",–
COc1cc(OC)cc(-c2c(-c3ccc(F)cc3)c3cc(-c4cccc5[nH]ccc45)ccc3n2C)c1,"inconclusive [inhibitor, partial curve]",–
